Data published in patent US8741883B2, “Compounds and methods for the diagnosis and treatment of amyloid associated diseases” (The Regents of the University of California—San Diego, priority 2005, dated 2014).

How the values were obtained:
[1] = biological target: binding of the anti-A-beta IgG (clone 6E10) to the A-beta fibrils (Homo sapiens, UniProt P05067); assay: ELISA-based inhibition of anti-A-beta IgG (clone 6E10) binding to ThT-coated A-beta fibrils; conditions: control compound, FIG. 2c
[2] = biological target: A-beta fibrils; conditions: by fluorescence, several groups; cited from earlier work
[3] = biological target: anti-A-beta IgG (clone 6E10)-A-beta fibril interactions (Homo sapiens, UniProt P05067)
[4] = biological target: ABAD-A-beta fibril interactions (Homo sapiens, UniProt P05067); assay: Inhibition of ABAD-A-beta fibril interactions (ELISA); assay type: binding; conditions: for total inhibition of ABAD-A-beta fibril interaction: concentrations above 4 mM (ThT at similar concentrations)
Source text: (Yan., S. D., et al., J. Biol. Chem. 1999:274:2145-2156); […]. Shi, A. Zhu, J. Fu, H. Zhu, Y. Zhu, L. Gibson, E. Stem, K. Collison, F. Al-Mohanna, S. Ogawa, A. Roher, […]. Stern, J. Biol. Chem. 1999, 274(4), 2145-2156; S. D. Yan, et al., Biochim. Biophys. Acta 2000:1502:145-157). […] Error bars represent standard deviations.

[5] = biological target: catalase-A-beta fibril interaction (Homo sapiens, UniProt P05067); assay: Inhibition of catalase-A-beta fibril interactions (ELISA); conditions: for maximum total inhibition of catalase-A-beta fibril interaction: ThT: at 3 mM and higher

SMILES | IC50 [4] [µM] | total inhibition of ABAD-A-beta fibril interaction [4] [%] | IC50 [5] [µM] | maximum total inhibition of catalase-A-beta fibril interaction [5] [%] | further results
O=S(=O)([O-])c1ccc(O)c2ccccc12.[Na+] [I-naphthol-4-sulfonate, 1-naphthol-4-sulfonate] |  |  |  |  | inhibition of the interaction between the IgGs and A-beta fibrils (control experiments) [1]: No inhibition
Cc1ccc2c(c1)sc(-c1ccc(N(C)C)cc1)[n+]2C.[Cl-] [ThT, Thioflavin T] |  |  |  |  | Kd for binding to A-beta fibrils [2]: high nM to low μM
CN1CCC[C@@H]1c1cccnc1 [D-nicotine] |  |  |  |  | efficacy in the IgG-A-beta inhibition assay (not shown in FIG. 4) [3]: good efficacy
Cc1ccc2nc(-c3ccc(NCCOCCOCCOCCO)cc3)sc2c1 [BTA-EG4] | 100 to 500 | ~75 | 590 | 91 | 
Cc1ccc2nc(-c3ccc(NCCOCCOCCOCCOCCOCCO)cc3)sc2c1 [BTA-EG6] | 100 to 500 | ~75 | 36 | 92 | 
